Paper PMC4942575
No constants are given. Whether binding was seen depends on the method and setting. For some of these results: In cells and extracts the contact can be indirect. Some entries that bind do so weakly or less than the wild type. For some of these results: Tags and fused reporters may be left off the sequences shown. Blank lines part the entries; values can stand above or below the substance they belong to.

By UniProt entry, the sequences of proteins in these tests, tags left out. Where a name states a change or a piece, a line headed by the entry shows the natural chain unless it says otherwise. Chains listed by the source or under a name are the forms on record and can include a tag or linker. Residues count along the entry.
UniProt A0MES8: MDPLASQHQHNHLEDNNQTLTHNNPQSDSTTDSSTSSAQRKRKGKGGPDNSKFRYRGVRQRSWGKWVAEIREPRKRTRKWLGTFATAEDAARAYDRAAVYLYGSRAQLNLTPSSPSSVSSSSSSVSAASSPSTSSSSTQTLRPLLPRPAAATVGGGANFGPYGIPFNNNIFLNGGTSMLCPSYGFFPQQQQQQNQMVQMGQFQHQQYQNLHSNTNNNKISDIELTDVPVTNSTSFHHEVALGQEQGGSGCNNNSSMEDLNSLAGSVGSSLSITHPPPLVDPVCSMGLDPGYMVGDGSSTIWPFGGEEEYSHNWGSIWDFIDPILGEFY
ABI4 (amino acids 1–160) fused with the GAL4 DNA-binding domain (BD): residues 1-160 of A0MES8
UniProt Q39026: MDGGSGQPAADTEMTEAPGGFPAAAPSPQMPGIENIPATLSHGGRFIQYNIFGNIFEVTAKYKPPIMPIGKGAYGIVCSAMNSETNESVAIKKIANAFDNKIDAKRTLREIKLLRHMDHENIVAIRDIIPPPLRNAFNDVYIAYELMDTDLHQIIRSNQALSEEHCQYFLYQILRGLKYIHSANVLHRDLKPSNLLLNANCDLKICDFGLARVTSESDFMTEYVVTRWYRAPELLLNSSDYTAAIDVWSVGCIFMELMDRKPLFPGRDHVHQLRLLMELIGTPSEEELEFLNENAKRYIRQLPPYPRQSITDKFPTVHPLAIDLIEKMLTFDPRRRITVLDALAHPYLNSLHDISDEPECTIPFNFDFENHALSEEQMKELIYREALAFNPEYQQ

Columns and labels:
[1] = biological target: ABI4-CLuc (Arabidopsis) (UniProt A0MES8); assay: split reporter; luciferase complementation imaging: ABI4-CLuc and MPK3/MPK6-NLuc co-infiltrated into N. benthamiana leaves
[2] = biological target: T1, 14-3-3ω-nYFP (Arabidopsis) (UniProt Q01525); assay: split reporter; BiFC: 14-3-3ω-nYFP and cYFP fusions co-transformed into Arabidopsis protoplasts; confocal microscopy 12-18 h after transformation
T1 sequence: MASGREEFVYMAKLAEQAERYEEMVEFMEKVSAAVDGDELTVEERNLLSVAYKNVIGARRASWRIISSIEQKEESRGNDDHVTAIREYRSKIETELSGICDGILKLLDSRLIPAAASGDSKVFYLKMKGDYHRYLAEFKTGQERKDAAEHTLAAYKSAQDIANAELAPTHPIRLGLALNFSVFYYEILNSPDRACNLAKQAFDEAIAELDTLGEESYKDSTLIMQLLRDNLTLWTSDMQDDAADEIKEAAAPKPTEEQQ

[3] = biological target: T2, 14-3-3ω in pGBK (two-hybrid bait) (Arabidopsis) (UniProt Q01525); assay: two-hybrid; 14-3-3ω or 14-3-3Φ in pGBK and MAPK pathway components in pGAD co-transformed into Y2H Gold; SD-Leu-Trp-His with 40 μg ml^-1 X-α-gal
T2 sequence: T1 sequence

[4] = biological target: ABI4 (amino acids 1–160) fused with the GAL4 DNA-binding domain (BD) (Arabidopsis) (UniProt A0MES8); assay: two-hybrid; ABI4 (1-160)-BD and 20 MAPKs-AD co-transformed into Y2H Gold; grown on SD-Leu-Trp, α-galactosidase assay

- binding [1]: binds
Substance: MPK6-NLuc (from UniProt Q39026 1-395) (enzyme)

- binding [2]: binds
Substance: MPK6-cYFP (from UniProt Q39026 1-395) (enzyme)

- binding [3]: binds
- binding [4]: binds
Substance: MPK6 fused with the GAL4 activation domain (AD) (from UniProt Q39026 1-395) (enzyme)
